This is one part of the list. These are further read-outs of the screen, such as a control signal, another cell line or another target. No call is given for them. For part of these data: The list favours compounds with an active or inconclusive main result. Words in brackets tell the shape of the fitted curve; partial curves, single points and poor fits give uncertain potencies.
Assays:
[1] = biological target: Histamine N-methyltransferase (Homo sapiens) (UniProt P50135); experiment: Confirmatory Screen for Target Class Profiling of Small Molecule Inhibitors of Methyltransferases (AID 1745852); conditions: MTase-Glo luminescence, SAH detection, recombinant enzyme; measured here: HNMT inhibition potency;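 note: inhibitor potency for blocking SAH production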
Chain of UniProt P50135 (P50135 whole entry, looked up): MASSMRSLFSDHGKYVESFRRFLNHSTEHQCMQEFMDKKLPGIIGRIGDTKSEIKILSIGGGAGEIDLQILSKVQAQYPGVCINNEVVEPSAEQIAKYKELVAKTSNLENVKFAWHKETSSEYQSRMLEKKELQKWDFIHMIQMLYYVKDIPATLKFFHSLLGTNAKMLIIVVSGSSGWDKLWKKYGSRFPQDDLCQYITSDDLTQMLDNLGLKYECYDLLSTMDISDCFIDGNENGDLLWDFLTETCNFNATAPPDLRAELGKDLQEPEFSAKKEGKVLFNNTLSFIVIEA

[2] = biological target: Nicotinamide N-methyltransferase (Homo sapiens) (UniProt P40261); experiment: as above; conditions: MTase-Glo luminescence, SAH detection, recombinant enzyme; measured here: NNMT inhibition potency
Chain of UniProt P40261 (P40261 whole entry, looked up): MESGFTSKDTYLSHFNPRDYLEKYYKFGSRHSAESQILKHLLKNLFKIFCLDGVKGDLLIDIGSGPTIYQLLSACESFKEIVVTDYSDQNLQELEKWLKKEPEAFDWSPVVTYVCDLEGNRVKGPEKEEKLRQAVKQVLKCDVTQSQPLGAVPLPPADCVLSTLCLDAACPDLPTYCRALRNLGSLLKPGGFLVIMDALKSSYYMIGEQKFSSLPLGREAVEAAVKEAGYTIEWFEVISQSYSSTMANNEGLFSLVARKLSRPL

[3] = biological target: Phenylethanolamine N-methyltransferase (Homo sapiens) (UniProt P11086); experiment: as above; conditions: MTase-Glo luminescence, SAH detection, recombinant enzyme; measured here: PNMT inhibition potency
Chain of UniProt P11086 (P11086 whole entry, looked up): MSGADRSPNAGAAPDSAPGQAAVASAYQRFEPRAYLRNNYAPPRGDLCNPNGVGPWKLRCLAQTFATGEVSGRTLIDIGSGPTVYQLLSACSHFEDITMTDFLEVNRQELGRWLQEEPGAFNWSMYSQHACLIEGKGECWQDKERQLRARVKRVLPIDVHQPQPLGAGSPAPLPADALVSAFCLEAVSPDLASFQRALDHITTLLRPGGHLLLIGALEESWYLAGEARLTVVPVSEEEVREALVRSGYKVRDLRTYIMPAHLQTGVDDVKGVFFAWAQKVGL

[4] = qHTS drug screen for cell cycle checkpoint inhibitors in PARPi-resistant BRCA-mutant ovarian cancer cell lines. (AID 1963452); conditions: PEO1/OlaR viability, CellTiter-Glo luminescence, 96 h
Outline: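 PEO1, PEO4 and PEO1/OlaR ovarian cancer cells, 600 per well, exposed 96 h at 37C to a dilution series. Viability read by CellTiter-Glo luminescence, normalized to DMSO and empty wells; activity summarized as Z-AUC.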

[5] = qHTS for identification of novel therapeutic agents for treatment of microphthalmiaassociated transcription factor (MiT) renal cell carcinoma (RCC) (AID 1963991); conditions: TFE3-RCC viability, CellTiter-Glo, 48 h
Outline: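 Three TFE3-fusion RCC lines (UOK109, UOK124, UOK145), 500 cells/well in complete medium, were treated with MIPE 4.0 compounds for 48 hours at 37 C. Viability was by CellTiter-Glo luminescence, normalized to DMSO (100%) and empty wells (0%); curves fitted over 11 concentrations.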
Tags give direction and shape of the fitted curve.

SMILES: CN1CCC(N2C[C@@H]3C[C@H]2C(=O)N(CC2CC2)c2ccccc2O3)CC1
- IC50 [1]: 24.8 µM [falling, partial curve]

SMILES: CN(C)c1nc(NC2CCC(NC(=O)c3ccc(F)c(F)c3)CC2)nc2ccccc12 (stereo not given)
- IC50 [1]: 17.1 µM [falling, partial curve]
- IC50 [2]: 24.1 µM [falling, partial curve, poor fit]

SMILES: Nc1nc(NCc2ccc(Cl)cc2Cl)cc(C2CC(O)C2)n1 (stereo not given)
- IC50 [1]: 17.1 µM [falling, partial curve]
- IC50 [2]: 27.1 µM [falling, partial curve, poor fit]

SMILES: CNC1CCN(C(Cc2cccc(-c3ccncc3)c2)C(=O)c2sc3c(F)ccc(F)c3c2Cl)CC1 (stereo not given)
- IC50 [1]: 21.5 µM [falling, partial curve]
- IC50 [2]: 12.1 µM [falling, partial curve]

SMILES: Cc1cnc(CCNC(=O)c2n[nH]c(=O)c3ccccc23)n1C1CCCCC1
- IC50 [1]: 5.41 µM [falling, partial curve]

SMILES: CN(CCc1ccc(Nc2ncc(-c3cccnc3)s2)cc1)Cc1ccccc1
- IC50 [1]: 13.6 µM [falling, partial curve]
- IC50 [2]: 17.1 µM [falling, partial curve]

SMILES: COc1ccc(CNc2cc3c(cn2)CN(Cc2ccccc2)CCN3)cc1OC
- IC50 [1]: 1.24 µM [falling, full curve]
- IC50 [2]: 31.2 µM [falling, partial curve]

SMILES: FC(F)(F)c1cccc(-c2nccn3c(C4CN(Cc5ccc6cn[nH]c6c5)C4)ncc23)c1
- IC50 [1]: 19.2 µM [falling, partial curve]
- IC50 [2]: 17.1 µM [falling, partial curve, poor fit]

SMILES: CN(C)CC1CCn2c(c(C3=C(c4cn(C)c5ccccc45)C(=O)NC3=O)c3ccccc32)C1 (stereo not given)
- IC50 [1]: 19.2 µM [falling, partial curve]
- IC50 [2]: 21.5 µM [falling, partial curve]

SMILES: NC(=O)c1cnc(NCCc2ccc(O)c(Cl)c2)nc1NCc1ccccc1
- IC50 [1]: 27.1 µM [falling, single point]
- IC50 [2]: 0.108 µM [falling, full curve]

SMILES: COc1ccc(S(=O)(=O)NC[C@H]2Cn3c(-c4ccc(Cl)cc4)cnc3CO2)cc1
- IC50 [1]: 39.3 µM [falling, partial curve, poor fit]
- IC50 [2]: 31.2 µM [falling, partial curve, poor fit]

SMILES: CC1CCCCN1CCCNC(=O)Cn1ccc2cc(S(=O)(=O)N3CCCCC3)ccc21 (stereo not given)
- IC50 [1]: 10.8 µM [falling, partial curve]

SMILES: CCN1CCN(c2ccc(Nc3ccc(-c4ccc(C(N)=O)cc4)n4ncnc34)cc2)CC1
- IC50 [1]: 24.1 µM [falling, partial curve]
- IC50 [2]: 19.2 µM [falling, partial curve]

SMILES: Cc1noc(C)c1-c1cc2c(cc(C)n2CCN(C)C)c(Nc2ccncn2)n1
- IC50 [1]: 35 µM [falling, partial curve]
- IC50 [3]: 39.3 µM [falling, partial curve, poor fit]

SMILES: C=CCn1c(=O)c2cnc(Nc3ccc(N4CCN(C)CC4)cc3)nc2n1-c1cccc(C(C)(C)O)n1
- IC50 [1]: 17.1 µM [falling, partial curve]
- AC50 ([4]; measured here: PEO1 parental viability): 0.11 µM [falling, full curve]
- AC50 ([4]; measured here: PEO4 viability): 0.195 µM [falling, full curve]
- AC50 ([5]; measured here: UOK124 cell viability): 1.66 µM [falling, full curve]
- AC50 ([5]; measured here: UOK145 cell viability): 0.187 µM [falling, full curve]

Source: PubChem BioAssay (NCATS)
